Laboratory results from the supplement of paper PMC11417369.
The list shows a part of the results.

These sequences were tested on PfHDP1 homeodomain (GST-tagged) (assay: gcPBM binding intensity (ln(normalized median fluorescence intensity)); higher = stronger DNA binding).
Method in brief: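 For binding intensity, the highest Masliner-normalised natural-log median intensity across replicate spots of either probe orientation was taken. Protein bound to the array was stained with Alexa488 anti-GST antibody and scanned at 488 nm. The protein, GST-tagged P. falciparum DNA-binding domains from E. coli at about 25 μg on average, had been applied for 1 h to an Agilent 4 × 180k array of primer-extended double-stranded 36-bp intergenic genomic probes and negative controls.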

| Sequence | gcPBM binding intensity (ln) |
| --- | --- |
| TAAATTAATACCTATGCACACATTTTTTTTTTTAAA [CACACA_site1238] | 8.59 |
| TTTATTATAATATGTTGTACAAGACGTTTCAGTATA [XGTACX_site4486] | 6.83 |
| AAATTATCTTAATAGGATGTTCAAGGAGAAAGATGA [CACACA_negctrl_site1032] | 6.71 |
| TCTCTCATTTATTTTTGTACTTAATCCAGCACGTTT [XGTACX_site1369] | 6.61 |
| ACATATTAATTATAAAGTACATATATATATATATAT [XGTACX_site4540] | 9.08 |
| TTCATATTATAGTGCACACAAAAATATATATATGGT [CACACA_site2855] | 10.4 |
| TTGTTTGTTGTAACGTGTACAGATAAAAATAAAGGG [XGTACX_site375] | 7.43 |
| GCTTCATTTTAAACTTGTACTTATTTTTTGGTAAAT [XGTACX_site8879] | 6.98 |
| GACCCACTTTTCTGCACACATAAAAAATATATAAAT [CACACA_site4483] | 8.88 |
| TATAATAAAACTTTTACACACTTTAAAAAAAAAAAA [CACACA_site6392] | 6.05 |
| TAAAAGTAAAGACATGCATGCATTGGTATCTTTTAC [TGCATGCA_site665] | 6.23 |
| TTTATATTTAAATATATATGAGAAAACACAAAATAT [TGCATGCA_negctrl_site211] | 6.98 |
| TAATATCAATATAAAGTACACACTATAGTATGTATT [CACACA_site2280] | 6.3 |
| TATATATATATATATATACACACGTATATATATACA [CACACA_site4155] | 9.31 |
| ATATCTTTGCAAAGATGTACTTGTAAAAATATATGA [XGTACX_site768] | 7.88 |
| ATAATTTTTTTTTTTTTTTTTTGAAAGTAGCATATG [CACACA_negctrl_site732] | 6.14 |
| AATAATGAAGCTTATGCACACGTTCATTATTTATAT [CACACA_site5736] | 10.6 |
| TACATATTTATATACACACACACCCTAAAAATATAT [CACACA_site6861] | 7.06 |
| AAAAGAATTACTTTCACACATATATATCTGTAAATA [CACACA_site5798] | 6.24 |
| ACTACAAGGCAATACAGTACATATAAATGTCATAAT [XGTACX_site8468] | 6.37 |
| AAAAAGGTTATTGGTACACACATATGTATTTATATA [CACACA_site4464] | 6.59 |
| TACCTTTTATTAATGTGTACCTAAAATATAATACTT [XGTACX_site192] | 6.36 |

| Sequence | gcPBM binding intensity (ln) |
| --- | --- |
| TAACAAAACCTTATATGTACACACATATACATCACA [XGTACX_site6772] | 6.52 |
| TTAAAAATGAACATATGTACATATATATATATATAT [XGTACX_site7923] | 9.3 |
| TTATCATTTTAAATCACACACATATATATATATATA [CACACA_site2849] | 9.41 |
| CAATAATTTTTTGTGGGTACAAATAATTTTTTAAAT [XGTACX_site2407] | 5.98 |
| AGGAGAAAAGATAAAGACTTCAAGAAAAAAAAATAA [TGCATGCA_negctrl_site258] | 6.46 |
| AAAATATAAAAAGTCACACATATATATATTTATTTA [CACACA_site4872] | 6.33 |
| TTGAATGAAAAAATTTGTACTCATATAAATAATTTA [XGTACX_site4628] | 6.18 |
| TTTCATATTTTGTCCTGTTTTTTTTTTTTTTTTCTT [CACACA_negctrl_site993] | 6.18 |
| TTTTGAATATTTGGTCGTACGTAAAAATAGATAATT [XGTACX_site5755] | 6.75 |
| AAAAAAAAAAAATATACACACACACCGACACATAAA [CACACA_site9270] | 7.06 |
| GATGCTAAAATTTATACACACAAAAAAAAAAAATTC [CACACA_site3284] | 6.51 |
| TATTTTATGTAAATTGGTACACATATGTCAGTAAAA [XGTACX_site7111] | 6.67 |
| AAAAAAAAAATGTGCACACGCGTACACCCAAAAAAA [CACACA_site5149] | 9.65 |
| TTTTTGTATCCTTCTTCTTTTTCCAGACTACATTAT [XGTACX_negctrl_site216] | 7.13 |
| TATAAAAATAATATTACACACATGTAAAATGGCTGT [CACACA_site5755] | 6.1 |
| TAAATATATGCATATACACACAACAAAAAAATATAT [CACACA_site2341] | 7.25 |
| TTGTGGATTTTGTGCGCACACACATGCAAAAAGAAA [CACACA_site1147] | 9.58 |
| TCTCAGTAAATTAAATGTACATAAGGGAGGAACTAT [XGTACX_site8045] | 6.6 |
| CACAGACATATATATACACACTTTTATTTAAATAAC [CACACA_site4962] | 7.16 |
| TACATATGGCACATATGTACACACGTATAGATAATA [XGTACX_site4123] | 6.76 |
| ATGAATATAAAATATACACACTTATATATCGAATGA [CACACA_site6240] | 6.12 |
| TTTTATTTTTTCTCACGTACAAATATATAATTTTTT [XGTACX_site6952] | 6.56 |

| Sequence | gcPBM binding intensity (ln) |
| --- | --- |
| AATATATCCTATTCGAACAAAAATACATGCACATAT [CACACA_negctrl_site1058] | 10.1 |
| GTATATATATATATATGTACATATATGTAGATATAT [XGTACX_site5431] | 6.61 |
| ATATGTACGCAAGGTGCACACTGGTGCATTAAAAAA [CACACA_site1801] | 11.5 |
| ATAAAATTTATATAAGCACACAAATATATATTTATA [CACACA_site9083] | 6.43 |
| TTATGGTTATACATATGTACATATATATATATATAT [XGTACX_site1494] | 9.26 |
| GTAAAGGCTATATATGTGCACATTTTTTTTTTTTTT [GTGCAC_site9925] | 10.9 |
| AATTGCATAATATATTCACACATTTTTAAGTGATAC [CACACA_site5679] | 6.82 |
| TATCATTATGTAGAAACACACATAAGCTTCGGTTCA [CACACA_site2766] | 5.94 |
| GGGGAAAAAAAAAAAGGAAAAAGAAAAAAAAAAAAA [GTGCAC_negctrl_site489] | 5.96 |
| AACATATAAATAAACTGTACATATATATATATATAT [XGTACX_site1056] | 9.37 |
| AATATTACGTGTTTGGTATTTTTCGATGTTGGCAGG [XGTACX_negctrl_site59] | 6.58 |
| ATATTATTTTAAAAAAGTACATTTTTAAGAATTCTT [XGTACX_site6630] | 6.5 |
| TATACGGACTCTAAGTGTACTTAAAATAATTCAAAC [XGTACX_site3606] | 6.38 |
| TATGTGTGACAAAATTGTACGGTCTCTTTATTTTGT [XGTACX_site2679] | 6.37 |
| TATTATATAATAAAAATTATTATTATTTGTATAAAT [CACACA_negctrl_site195] | 6.26 |
| TAAAAATGTTGACACACACACATAAATATATTTTAT [CACACA_site7227] | 6.65 |
| TATATTGCCCTTCACACACACACATATATATATATA [CACACA_site2492] | 9.23 |
| ATTTTTATACCTAAGTGTACATGATGTTTTCTTTTT [XGTACX_site973] | 6.69 |
| TGTTTCCTATTTTGTATGCACTTTTTGTCATAATTA [GTGCAC_site9921] | 7.86 |
| TAAATAAATAAAAAAACACACATATAAATATAAATA [CACACA_site7815] | 6.47 |
| TTACTATATAATATGTGTACACAACATATAATATAT [XGTACX_site1383] | 6.81 |
| GTTGTGTAATTCGTAACACACATAAAATATAAATAA [CACACA_site7799] | 6.55 |

| Sequence | gcPBM binding intensity (ln) |
| --- | --- |
| AAAAAAAAAAAAAAAAAAAAAAAAATATATATATAT [CACACA_negctrl_site436] | 8.97 |
| TTTTTTTTTTGATGTTGTACTTATATACTATATAAT [XGTACX_site2778] | 6.38 |
| CATTTTTAAAAAAATTGTACAAAACATATATGTGTA [XGTACX_site3396] | 6.73 |
| TTCCTTTTGAACTCTCGTACGCGTAGGTGTTATTAT [XGTACX_site6264] | 6.67 |
| TATTAAAAGTAAAAAACACACATGGATATATACATA [CACACA_site3959] | 6.65 |
| AATATATAGCTAAAAACACACAAATATATACTCATA [CACACA_site5904] | 6.55 |
| TTTATAAAATTTATTGCACACAATTATTTTATAATT [CACACA_site2489] | 9.98 |
| CTCACGTAGCTTGATGCATGCAAACTTGAGTAAAAG [TGCATGCA_site409] | 6.94 |
| ATACATTTTTTTTTCACACATATATATATATTTAAT [CACACA_site5995] | 7.31 |
| ATATATATATATTGCACACATATAAATATATATATT [CACACA_site807] | 10.6 |
| CAACCTTTTTTGTTGGTGCATAATTTTTTTTTCTTT | 9.44 |
| AAAAAAAAAGTATATATATATTTAAGGAATTCTCTC [GTGCAC_negctrl_site454] | 6.33 |
| TAAACAGACATACATACACACATACATACAGACATA [CACACA_site6997] | 6.63 |
| CATATACTCGGACACACACACACACCGACAAAAAAA [CACACA_site4433] | 7.21 |
| TATCATAAAATATGTAGTACGTATATATATAAAAAT [XGTACX_site5455] | 6.89 |
| TTTATAGTTTTTAATAGTACACATATTTTTAAGTAT [XGTACX_site5498] | 6.38 |
| TTTTGTGGAGGATGGTGTACGGTATTGTATTATTAC [XGTACX_site1942] | 6.8 |
| TTTTCATTTTTCTTTACACACATATATTTATTTATA [CACACA_site7119] | 7.15 |
| GTTAATATTTACTACACACACTTAAAATATGTATAT [CACACA_site4194] | 6.63 |
| ATATTATAATTAAAACGTACGTATTTATGAATTCAT [XGTACX_site1047] | 6.8 |
| TATTAATTAAACCATACACACATAATTTTTTTATAA [CACACA_site843] | 6.47 |
| TACATAAATTAAAACACACACACACTAAAAAAAAAA [CACACA_site7130] | 6.73 |
